# Test results from PubChem BioAssay AID686978 (National Center for Advancing Translational Sciences (NCATS), 2013).
# Hit rate of the full screen: of about 420,000 compounds, about 64,000 (15%) were called active. The shares of active, inactive and inconclusive entries below differ from those in the screen. Calls follow the shape of the dose curve; as a rule, active = well fitted inhibition curve with a large enough effect; inconclusive = small, poorly fitted or top-dose-only effect; inactive = flat fitted curve, though single readings scatter. Potencies of inconclusive entries are left out as doubtful fits.
# Test: qHTS for Inhibitors of human tyrosyl-DNA phosphodiesterase 1 (TDP1): qHTS in cells in absence of CPT; also: nearly all actives have a fitted effect of over 55% in size
# Settings: DT40 Tdp1-/- hTDP1 cells, no CPT, ATP luminescence, 48 h; activity change, negative = growth inhibition: at 46.2 µM (top of the series) unless noted
# Method in brief: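 Stably hTDP1-transfected Tdp1-null chicken DT40 cells were treated with library compounds minus camptothecin and grown for at least 48 hr at 37 °C, after which cellular ATP was quantified by luminescence.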
# % is scaled to controls: 0 for no effect and ±100 for the full control effect; potency is read from the fitted curve at half-maximal effect; tags tell the direction and shape of the fitted curve.
Compound,Potency,"activity change, negative = growth inhibition"
Cc1nnc2c3ccccc3nc(N3CCN(c4ccccc4)CC3)n12,"inconclusive [inhibitor, single point]",
Cc1csc(=O)n1CC(=O)OCC(=O)c1c(N)n(C)c(=O)n(C)c1=O,"inconclusive [inhibitor, partial curve, poor fit]",
Cc1ccc2cc(CCNC(=O)c3ccc4c(c3)OCO4)c(=O)[nH]c2c1,"inconclusive [inhibitor, single point]",
Cc1ccc(S(=O)(=O)N2CCN(c3nc(-c4cccnc4)nc4ccccc34)CC2)cc1,active: 11.2 µM,
COCCNC(=O)C(=O)N/N=C(\C)CC(=O)Nc1ccc2c(c1)OCO2,,inconclusive: -33.7% [inhibitor]
CCOc1ccc2nc(NC(=O)CSc3nc4ccccc4c(=O)n3Cc3ccco3)sc2c1,"inconclusive [inhibitor, single point]",
COC(=O)c1c(C)[nH]c(O)c1C=Nc1ccc(Oc2ccccc2)cc1,"inconclusive [inhibitor, partial curve]",
CS(=O)(=O)N1N=C(c2cccs2)CC1c1ccco1 (stereo not drawn),"inconclusive [inhibitor, single point]",
CCOC(=O)C1CCCN(C(=O)c2ccccc2NC(=O)c2nsc3ccccc23)C1 (stereo not drawn),"inconclusive [inhibitor, single point]",
COc1ccc(-c2cc(=O)oc3c(C)c(OC(C)C(=O)Nc4ccc(CN5CCOCC5)cc4)ccc23)cc1 (stereo not drawn),"inconclusive [inhibitor, single point]",
O=C(/C=C/c1ccc([N+](=O)[O-])s1)N1CCCCC1,active: 11.6 µM,
CCOc1ccc(C2CC(=O)c3c([nH]c(C(=O)OCCOc4ccccc4)c3C)C2)cc1 (stereo not drawn),active: 14.6 µM,
CS(=O)(=O)c1ccc(Cl)c(NC(=O)c2cc(=O)[nH]c3ccc(S(=O)(=O)N4CCOCC4)cc23)c1,inactive,
OCCN1CCN(c2ncnc3c2ncn3[C@H]2CN(Cc3ccccc3)C[C@@H](CO)O2)CC1,"inconclusive [inhibitor, single point]",
Cc1c(C)c2ccc(OC(C)C(=O)N3CC[C@@]4(O)CCCC[C@H]4C3)cc2oc1=O (stereo partly drawn),"inconclusive [inhibitor, single point]",
O=C(c1cnccn1)N1CCC[C@@]2(CCN(c3cccc(-c4ccccc4)c3)C2)C1,"inconclusive [inhibitor, single point]",
CN(C(=O)COC(=O)c1ccc2c(c1)OCO2)c1c(N)n(Cc2ccccc2)c(=O)[nH]c1=O,inactive,
Cc1ccccc1Cn1nnc2c(=O)[nH]c(C3CCCN(C(=O)c4ccc(C(C)(C)C)cc4)C3)nc21 (stereo not drawn),active: 25.9 µM,
COc1ccc(NC(=O)c2cc(C3CCCCN3C(=O)c3ccc(NC(C)=O)cc3)on2)c(C)c1 (stereo not drawn),inactive,
O=C(c1ccc2c(c1)N(Cc1cccc(Cl)c1)C(=O)c1ccccc1S2(=O)=O)N1CCCC1,active: 20.6 µM,
Cc1ccc(S(=O)(=O)N2C(=O)[C@@H]3Cc4ccccc4CN3C2=O)cc1,"inconclusive [inhibitor, partial curve]",
C=CCn1c(SCC(=O)Nc2ccc(OC)cc2)nc2ccccc2c1=O,"inconclusive [inhibitor, single point]",
Cc1cccc(NC(=O)CSc2nccn2Cc2ccco2)c1,inactive,

Compound,Potency,"activity change, negative = growth inhibition"
N#Cc1c(-c2ccccc2)cc(-c2ccccc2)nc1SCC(O)CS(=O)(=O)Cc1ccccc1 (stereo not drawn),active: 5.8 µM,
O=C(Cn1cc(SCc2ccc(F)cc2)c2ccccc21)N1CCCCCC1,"inconclusive [inhibitor, single point]",
Cc1c(Cl)c([N+](=O)[O-])nn1CCCC(=O)Nc1sc2c(c1C(N)=O)CCC(C)C2 (stereo not drawn),"inconclusive [inhibitor, single point]",
COCCOC(=O)c1c(N)n(CCCN2CCOCC2)c2nc3ccccc3nc12,inactive,
O=C1c2ccc([N+](=O)[O-])cc2S(=O)(=O)N1Cc1ccccc1,inactive,
Cc1cc(C)cc(N(C(=O)c2ccc(Br)o2)C2C=CS(=O)(=O)C2)c1 (stereo not drawn),"inconclusive [inhibitor, single point]",
CCCCNc1c(-c2ccc(F)cc2)nc2nc(C)cc(C)n12,"inconclusive [inhibitor, single point]",
CCC(C)CN1C(=O)CN(S(C)(=O)=O)CC1(C)C(=O)NC(C)C (stereo not drawn),inactive,
Cc1cc(NC(=O)CSc2nnc(-c3ccncc3)n2-c2ccccc2)no1,inactive,
COc1ccc(/C=C2/SC(=S)N(CCCC(=O)Nc3cccc(O)c3)C2=O)cc1,"inconclusive [inhibitor, single point]",
CCn1nc(C)c(Br)c1-c1nc(-c2cccc(C)c2)no1,inactive,
CCC(=O)NC(=S)Nc1ccccc1OC,"inconclusive [inhibitor, single point]",
COc1cc(OC)cc(C(=O)Nc2ccccc2-c2nnn(CC(=O)Nc3cc(C)on3)n2)c1,inactive,
N#Cc1c(-c2ccccc2)ccn(Cc2cccc(Cl)c2)c1=O,"inconclusive [inhibitor, single point]",
Cc1ccccc1Nc1nc(N)c2ccccc2n1,"inconclusive [inhibitor, single point]",
COc1ccc(N2CCN(C(=O)CSc3nnc(NC(=O)C4CC4)s3)CC2)cc1,"inconclusive [inhibitor, single point]",
CCOCCCNC(=O)C1CCCN(c2ncnc3onc(C)c23)C1 (stereo not drawn),active: 20.6 µM,
COC(=O)c1c(NC(=O)CSc2nncs2)sc2c1CCCCC2,"inconclusive [inhibitor, single point]",
CC(=O)Nc1ccccc1OC(C)C(=O)NC(C)c1ccc(F)cc1 (stereo not drawn),,inconclusive: -31.1% [inhibitor]
CCC(CC)C(=O)N1N=C(c2ccc(NS(C)(=O)=O)cc2)CC1c1ccc(C)cc1 (stereo not drawn),"inconclusive [inhibitor, single point]",
Cc1cccc(C)c1NC(=O)C(c1ccc(C(F)(F)F)cc1)n1c(=O)c(-c2cc3ccccc3[nH]2)nc2ccccc21 (stereo not drawn),"inconclusive [inhibitor, single point]",
CC(C)(C)c1ccc(C(=O)C[n+]2cccc(Br)c2)cc1,"inconclusive [inhibitor, single point]",
CCOc1ccc(NC(=O)c2cnn(-c3ccccc3)c2-n2cccc2)cc1,"inconclusive [inhibitor, single point]",

Compound,Potency,"activity change, negative = growth inhibition"
O=C(CSc1nnnn1-c1ccccc1)CC(=O)Nc1ccc(Cl)cc1,"inconclusive [inhibitor, single point]",
CC(Sc1nc2ccccc2c(=O)n1CC1CCCO1)C(=O)Nc1ccc(S(N)(=O)=O)cc1 (stereo not drawn),inactive,
Cc1c(C)c2ccc(OCC(=O)N3CCN(C(=O)C4COc5ccccc5O4)CC3)cc2oc1=O (stereo not drawn),active: 2.31 µM,
C/C(=C\C(=O)c1ccccc1)NCc1ccc(F)cc1,"inconclusive [inhibitor, single point]",
O=S(=O)(NCc1ccc(F)cc1)c1ccc(-n2cccn2)cc1,inactive,
C(=N\Nc1nc(Nc2ccccc2)nc(N2CCOCC2)n1)/c1c[nH]c2ccccc12,active: 8.2 µM,
CC(C)C[C@@H](C(=O)NCc1ccco1)N1C(=O)N2CCc3c([nH]c4ccccc34)[C@@]2(C)C1=O,active: 5.17 µM,
Cc1ccc(S(=O)(=O)N2C[C@H]3N(C(=O)OC(C)C)N(C(=O)OC(C)C)C[C@H](OC(=O)NC4CC4)[C@@]3(O)C2)cc1,"inconclusive [inhibitor, full curve]",
CCCn1nnc(NC(=S)NC(=O)c2ccc(-c3ccc(Br)cc3)o2)n1,"inconclusive [inhibitor, single point]",
CN(c1ccc(C(=O)N2CCN(Cc3ccc4c(c3)OCO4)CC2)cc1)S(C)(=O)=O,inactive,
Cc1ccc2c(c1)N(CC(=O)N1CCCCCC1)C(=O)C(C)O2 (stereo not drawn),inactive,
COc1cc(C2c3c(oc4cc(C)c(C)cc4c3=O)C(=O)N2c2cc(C)ccn2)ccc1O (stereo not drawn),"inconclusive [inhibitor, single point]",
COc1cc(/C=C2\SC(=S)N(Nc3ccccc3)C2=O)cc(OC)c1OC,"inconclusive [inhibitor, single point]",
CCOc1ccc(/C=N/NC(=O)c2cccc3ccccc23)c(OCC)c1,inactive,
C=CCSc1nc2ccccc2n1S(=O)(=O)c1ccc(Cl)cc1,,inconclusive: -31.4% [inhibitor]
COc1cc2ccccc2cc1C(=O)N1CC(C)CC(C)C1 (stereo not drawn),"inconclusive [inhibitor, single point]",
CC(C)C[C@H](NC(=O)c1nc[nH]c1C(=O)N[C@@H](CC(C)C)C(=O)OCc1ccccc1)C(=O)OCc1ccccc1,active: 25.9 µM,
O=C(CNC(=O)c1ccc2c(=O)n3c(nc2c1)CCC3)Nc1ccc(F)c(F)c1,inactive,
O=C(c1cccc(S(=O)(=O)NCc2ccccc2)c1)N1CCN(c2ccc(F)cc2)CC1,"inconclusive [inhibitor, single point]",
Cc1cc(=O)n2c3ccccc3n(CC(O)CN3CCCC3)c2c1C#N (stereo not drawn),"inconclusive [inhibitor, single point]",
CCCN(Cc1cccs1)C(=O)Nc1cc(C)cc(C)c1,"inconclusive [inhibitor, single point]",
COc1ccc(-c2nnc(CSc3nc4ccccc4c(=O)n3C)o2)cc1OC,active: 20.6 µM,
